Assay [1] concerns the target T1, RB1 (wild type, co-immunoprecipitations in cells) (UniProt P06400).
T1 sequence: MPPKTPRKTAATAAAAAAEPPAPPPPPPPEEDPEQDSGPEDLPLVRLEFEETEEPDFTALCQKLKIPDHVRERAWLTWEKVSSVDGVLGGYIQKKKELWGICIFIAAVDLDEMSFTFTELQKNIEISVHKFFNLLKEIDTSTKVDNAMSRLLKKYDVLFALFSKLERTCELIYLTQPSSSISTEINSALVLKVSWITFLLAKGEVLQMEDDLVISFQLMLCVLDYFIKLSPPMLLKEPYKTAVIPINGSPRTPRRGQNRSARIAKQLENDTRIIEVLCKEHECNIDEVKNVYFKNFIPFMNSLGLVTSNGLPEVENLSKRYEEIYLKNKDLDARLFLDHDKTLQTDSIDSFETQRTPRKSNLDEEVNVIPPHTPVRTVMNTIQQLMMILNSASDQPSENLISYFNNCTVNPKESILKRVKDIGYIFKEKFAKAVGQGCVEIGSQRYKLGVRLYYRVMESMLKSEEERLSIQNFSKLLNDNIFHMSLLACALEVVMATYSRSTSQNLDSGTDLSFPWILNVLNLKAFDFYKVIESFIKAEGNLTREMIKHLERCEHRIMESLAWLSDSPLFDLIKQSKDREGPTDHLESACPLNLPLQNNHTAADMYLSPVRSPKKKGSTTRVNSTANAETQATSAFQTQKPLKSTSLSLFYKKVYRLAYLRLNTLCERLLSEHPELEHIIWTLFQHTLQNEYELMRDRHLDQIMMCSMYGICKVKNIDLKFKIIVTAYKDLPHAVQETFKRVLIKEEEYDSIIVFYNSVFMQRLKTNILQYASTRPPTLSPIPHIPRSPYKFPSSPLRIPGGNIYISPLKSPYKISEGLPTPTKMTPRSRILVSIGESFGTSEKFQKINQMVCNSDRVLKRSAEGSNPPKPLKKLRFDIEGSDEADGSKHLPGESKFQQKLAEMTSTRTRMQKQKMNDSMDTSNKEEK
The assay can be described thus: co-IP; in cells; lysis in EBC buffer (50 mM Tris-HCl pH 7.4, 120 mM NaCl, 0.5% NP-40), 1000 μg lysate protein with antibody-conjugated protein A/G beads or HA-/Flag-agarose beads at 4 °C, washed four times with NETN buffer, immunoblot; with or without ribociclib (Fig. 2i). (Immunoblotting shows a protein as a band on a membrane.)

Sequences of proteins named here, by UniProt entry; tags and fusion partners are left off.
UniProt P08047: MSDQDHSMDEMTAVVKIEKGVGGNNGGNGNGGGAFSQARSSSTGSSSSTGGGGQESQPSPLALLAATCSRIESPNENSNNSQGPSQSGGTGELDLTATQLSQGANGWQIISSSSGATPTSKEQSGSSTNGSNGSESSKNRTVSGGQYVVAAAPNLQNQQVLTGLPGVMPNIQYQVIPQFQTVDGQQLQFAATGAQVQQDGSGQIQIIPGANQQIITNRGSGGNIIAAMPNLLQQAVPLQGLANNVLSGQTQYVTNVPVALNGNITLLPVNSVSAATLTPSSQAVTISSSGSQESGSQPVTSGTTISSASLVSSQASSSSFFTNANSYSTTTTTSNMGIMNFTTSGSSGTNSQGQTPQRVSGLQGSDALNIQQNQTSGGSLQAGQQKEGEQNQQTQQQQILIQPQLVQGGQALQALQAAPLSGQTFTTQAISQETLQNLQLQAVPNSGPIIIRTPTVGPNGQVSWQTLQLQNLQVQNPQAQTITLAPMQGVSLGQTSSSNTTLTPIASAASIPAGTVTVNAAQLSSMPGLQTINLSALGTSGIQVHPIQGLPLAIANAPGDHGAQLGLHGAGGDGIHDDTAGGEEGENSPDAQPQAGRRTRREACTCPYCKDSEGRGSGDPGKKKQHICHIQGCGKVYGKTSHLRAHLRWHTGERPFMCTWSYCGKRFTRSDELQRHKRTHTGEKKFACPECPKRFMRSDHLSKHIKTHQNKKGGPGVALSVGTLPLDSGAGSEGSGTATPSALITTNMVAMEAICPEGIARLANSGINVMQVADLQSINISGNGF
UniProt Q08999: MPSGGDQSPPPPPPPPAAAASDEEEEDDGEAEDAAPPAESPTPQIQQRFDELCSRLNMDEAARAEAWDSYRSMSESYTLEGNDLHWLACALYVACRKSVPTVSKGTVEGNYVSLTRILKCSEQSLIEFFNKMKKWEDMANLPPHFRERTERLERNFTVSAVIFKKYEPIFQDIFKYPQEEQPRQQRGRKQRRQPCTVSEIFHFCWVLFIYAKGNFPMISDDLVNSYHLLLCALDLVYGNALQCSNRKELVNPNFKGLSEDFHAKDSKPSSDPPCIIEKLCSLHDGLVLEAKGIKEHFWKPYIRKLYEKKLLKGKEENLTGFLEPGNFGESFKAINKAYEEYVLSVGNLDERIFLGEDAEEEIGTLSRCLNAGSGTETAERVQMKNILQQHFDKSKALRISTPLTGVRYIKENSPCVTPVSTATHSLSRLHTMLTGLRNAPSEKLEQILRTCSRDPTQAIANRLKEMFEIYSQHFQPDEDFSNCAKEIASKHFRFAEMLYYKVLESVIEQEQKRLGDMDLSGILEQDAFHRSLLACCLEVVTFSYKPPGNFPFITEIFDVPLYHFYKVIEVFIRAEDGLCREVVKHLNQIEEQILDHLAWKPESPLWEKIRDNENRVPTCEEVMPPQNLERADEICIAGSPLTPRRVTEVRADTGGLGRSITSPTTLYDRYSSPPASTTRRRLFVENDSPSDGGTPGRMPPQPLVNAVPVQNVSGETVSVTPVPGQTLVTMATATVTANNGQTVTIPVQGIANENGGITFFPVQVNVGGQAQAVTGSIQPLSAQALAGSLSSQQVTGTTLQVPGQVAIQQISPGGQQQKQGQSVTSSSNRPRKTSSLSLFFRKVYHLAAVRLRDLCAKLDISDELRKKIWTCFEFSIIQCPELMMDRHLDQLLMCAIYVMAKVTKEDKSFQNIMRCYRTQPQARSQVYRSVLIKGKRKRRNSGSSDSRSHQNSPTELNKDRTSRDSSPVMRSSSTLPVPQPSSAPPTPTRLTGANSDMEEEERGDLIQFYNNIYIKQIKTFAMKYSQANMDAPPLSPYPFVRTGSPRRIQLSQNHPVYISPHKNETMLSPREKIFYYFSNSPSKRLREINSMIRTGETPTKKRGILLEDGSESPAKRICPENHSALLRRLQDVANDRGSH
UniProt Q12834: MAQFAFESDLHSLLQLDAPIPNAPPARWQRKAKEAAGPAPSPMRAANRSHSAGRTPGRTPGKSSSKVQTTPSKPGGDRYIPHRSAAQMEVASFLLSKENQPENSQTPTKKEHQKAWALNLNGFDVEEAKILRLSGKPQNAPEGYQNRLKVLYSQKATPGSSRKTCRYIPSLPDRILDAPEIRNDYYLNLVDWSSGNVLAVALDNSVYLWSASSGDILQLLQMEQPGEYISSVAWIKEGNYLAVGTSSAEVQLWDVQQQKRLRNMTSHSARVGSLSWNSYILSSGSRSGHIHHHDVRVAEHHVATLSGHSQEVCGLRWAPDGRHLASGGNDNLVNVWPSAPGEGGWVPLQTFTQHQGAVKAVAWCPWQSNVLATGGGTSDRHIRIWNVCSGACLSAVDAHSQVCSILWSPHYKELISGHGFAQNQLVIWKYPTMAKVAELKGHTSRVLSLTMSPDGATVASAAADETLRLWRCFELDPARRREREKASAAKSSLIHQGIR
UniProt P49674: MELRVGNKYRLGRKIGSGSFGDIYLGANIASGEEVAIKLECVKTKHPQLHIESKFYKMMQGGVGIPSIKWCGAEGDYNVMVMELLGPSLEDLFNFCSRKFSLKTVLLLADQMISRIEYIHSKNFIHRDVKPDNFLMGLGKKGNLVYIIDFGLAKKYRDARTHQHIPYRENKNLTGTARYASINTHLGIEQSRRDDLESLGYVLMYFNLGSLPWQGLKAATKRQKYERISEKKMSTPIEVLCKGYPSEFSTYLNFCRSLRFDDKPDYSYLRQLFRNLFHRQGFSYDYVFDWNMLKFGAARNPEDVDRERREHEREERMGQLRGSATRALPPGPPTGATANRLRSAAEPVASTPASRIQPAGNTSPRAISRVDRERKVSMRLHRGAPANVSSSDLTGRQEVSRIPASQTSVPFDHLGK
UniProt Q969H0: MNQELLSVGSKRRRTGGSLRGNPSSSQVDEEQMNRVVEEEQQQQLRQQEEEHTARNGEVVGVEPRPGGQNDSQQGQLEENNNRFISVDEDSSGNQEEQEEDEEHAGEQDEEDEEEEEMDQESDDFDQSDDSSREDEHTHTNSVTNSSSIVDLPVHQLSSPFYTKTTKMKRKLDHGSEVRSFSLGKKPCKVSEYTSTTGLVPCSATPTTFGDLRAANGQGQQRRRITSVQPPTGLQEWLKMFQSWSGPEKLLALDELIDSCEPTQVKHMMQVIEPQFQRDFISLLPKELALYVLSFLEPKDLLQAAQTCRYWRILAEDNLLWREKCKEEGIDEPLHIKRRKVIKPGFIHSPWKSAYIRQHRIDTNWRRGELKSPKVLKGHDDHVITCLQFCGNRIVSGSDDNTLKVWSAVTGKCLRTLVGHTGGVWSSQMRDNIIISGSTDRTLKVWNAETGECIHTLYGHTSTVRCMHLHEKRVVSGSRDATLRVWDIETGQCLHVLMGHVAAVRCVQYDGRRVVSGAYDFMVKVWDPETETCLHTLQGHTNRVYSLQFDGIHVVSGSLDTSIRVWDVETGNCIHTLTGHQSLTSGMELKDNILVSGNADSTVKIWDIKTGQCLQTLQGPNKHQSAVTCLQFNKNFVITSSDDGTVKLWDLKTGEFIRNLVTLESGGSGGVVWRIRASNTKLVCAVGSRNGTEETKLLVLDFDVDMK
UniProt Q9Y297: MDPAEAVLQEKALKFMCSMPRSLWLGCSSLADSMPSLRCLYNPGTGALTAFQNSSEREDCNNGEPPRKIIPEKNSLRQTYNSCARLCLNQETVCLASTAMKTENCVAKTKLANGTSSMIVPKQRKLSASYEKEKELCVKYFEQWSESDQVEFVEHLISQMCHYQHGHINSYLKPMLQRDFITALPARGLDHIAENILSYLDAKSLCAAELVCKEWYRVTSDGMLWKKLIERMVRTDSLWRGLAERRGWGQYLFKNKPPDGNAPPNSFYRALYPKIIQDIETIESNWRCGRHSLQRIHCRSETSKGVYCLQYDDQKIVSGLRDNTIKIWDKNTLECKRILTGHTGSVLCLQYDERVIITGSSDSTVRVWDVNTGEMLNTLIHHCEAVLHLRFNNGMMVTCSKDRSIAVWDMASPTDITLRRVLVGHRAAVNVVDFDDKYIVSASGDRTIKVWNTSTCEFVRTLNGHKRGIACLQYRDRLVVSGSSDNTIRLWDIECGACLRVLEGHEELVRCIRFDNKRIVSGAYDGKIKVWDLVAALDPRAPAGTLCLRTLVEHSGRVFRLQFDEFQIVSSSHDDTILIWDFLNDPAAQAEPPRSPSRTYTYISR

Another assay concerns the target SP1 (UniProt P08047). The description is as above.
Assay [2] has as its target T2, RB1 in MDA-MB-231 cells (human (endogenous in MDA-MB-231)) (UniProt P06400).
T2 sequence: T1 sequence
The assay can be described thus: co-IP; MDA-MB-231 cells serum starved for 48 h, then serum re-addition and harvest at indicated time points; interaction seen in G1 phase.

In another assay the target is T3, p107 (UniProt P28749).
T3 sequence: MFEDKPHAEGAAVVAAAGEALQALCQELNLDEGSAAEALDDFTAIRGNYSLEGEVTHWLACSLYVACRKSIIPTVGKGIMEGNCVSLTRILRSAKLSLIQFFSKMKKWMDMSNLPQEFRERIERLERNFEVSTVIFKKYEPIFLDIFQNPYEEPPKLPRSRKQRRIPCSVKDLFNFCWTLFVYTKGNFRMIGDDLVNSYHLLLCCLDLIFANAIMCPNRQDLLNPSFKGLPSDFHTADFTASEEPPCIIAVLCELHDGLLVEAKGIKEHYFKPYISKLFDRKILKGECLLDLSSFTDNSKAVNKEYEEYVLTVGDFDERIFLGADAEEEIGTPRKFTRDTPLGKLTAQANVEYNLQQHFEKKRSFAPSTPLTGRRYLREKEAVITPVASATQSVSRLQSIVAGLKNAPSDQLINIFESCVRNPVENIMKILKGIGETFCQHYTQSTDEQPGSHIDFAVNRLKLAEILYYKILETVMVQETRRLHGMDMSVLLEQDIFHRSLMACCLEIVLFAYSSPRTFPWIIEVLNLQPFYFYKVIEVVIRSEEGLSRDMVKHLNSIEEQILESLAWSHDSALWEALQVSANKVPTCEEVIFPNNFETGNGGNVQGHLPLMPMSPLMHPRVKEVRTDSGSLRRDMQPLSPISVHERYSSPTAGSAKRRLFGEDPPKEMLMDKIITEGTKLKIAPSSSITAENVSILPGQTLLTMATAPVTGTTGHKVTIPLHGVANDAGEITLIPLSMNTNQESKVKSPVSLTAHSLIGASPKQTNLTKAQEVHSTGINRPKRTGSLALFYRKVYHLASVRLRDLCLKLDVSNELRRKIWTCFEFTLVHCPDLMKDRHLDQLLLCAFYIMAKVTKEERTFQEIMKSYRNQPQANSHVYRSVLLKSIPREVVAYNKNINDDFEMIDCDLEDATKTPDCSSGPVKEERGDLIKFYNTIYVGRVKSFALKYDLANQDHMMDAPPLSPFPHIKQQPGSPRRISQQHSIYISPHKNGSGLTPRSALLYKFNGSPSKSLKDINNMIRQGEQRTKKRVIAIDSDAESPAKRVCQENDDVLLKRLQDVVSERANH
The assay is described as follows: co-IP; in cells; lysis in EBC buffer (50 mM Tris-HCl pH 7.4, 120 mM NaCl, 0.5% NP-40), 1000 μg lysate protein with antibody-conjugated protein A/G beads or HA-/Flag-agarose beads at 4 °C, washed four times with NETN buffer, immunoblot; with or without ribociclib (Fig. 2i).

In the next assay the target is p130 (UniProt Q08999). The description is as above.

Results are given in words; binding and its absence hold for the method and conditions named. In cells and extracts the contact can be indirect. Some entries that bind do so weakly or less than the wild type.

On to “CDC20 (co-immunoprecipitation in cells) (from UniProt Q12834 1-499)”, for which, in assay [1], the binding result is reported as “binds”.

On to “CK1ε (co-immunoprecipitation in cells) (from UniProt P49674 1-416) (enzyme)”, for which the binding result (in assay [1]; with SP1) was “binds” each time.

Take “CK1ε in MDA-MB-231 cells (from UniProt P49674 1-416) (enzyme)”: in assay [2], the binding entry was “binds”.

Regarding “FBXW7 (co-immunoprecipitation in cells) (from UniProt Q969H0 1-707)”, the binding result in assay [1] is “binds”.

For the substance “βTrCP1 (co-immunoprecipitation in cells) (from UniProt Q9Y297 1-605)”, the binding result in assay [1] is listed as “binds”; in the assay with p107, “no binding”; in the assay with p130, “no binding”.

With “βTrCP1 in MDA-MB-231 cells (from UniProt Q9Y297 1-605)”, the binding entry in assay [2] is “binds”.
